# In PMC3834829:
# By UniProt entry, the sequences of proteins in these tests, tags left out. Where a name states a change or a piece, a line headed by the entry shows the natural chain unless it says otherwise. Residues count along the entry.
# UniProt Q9Y5X4: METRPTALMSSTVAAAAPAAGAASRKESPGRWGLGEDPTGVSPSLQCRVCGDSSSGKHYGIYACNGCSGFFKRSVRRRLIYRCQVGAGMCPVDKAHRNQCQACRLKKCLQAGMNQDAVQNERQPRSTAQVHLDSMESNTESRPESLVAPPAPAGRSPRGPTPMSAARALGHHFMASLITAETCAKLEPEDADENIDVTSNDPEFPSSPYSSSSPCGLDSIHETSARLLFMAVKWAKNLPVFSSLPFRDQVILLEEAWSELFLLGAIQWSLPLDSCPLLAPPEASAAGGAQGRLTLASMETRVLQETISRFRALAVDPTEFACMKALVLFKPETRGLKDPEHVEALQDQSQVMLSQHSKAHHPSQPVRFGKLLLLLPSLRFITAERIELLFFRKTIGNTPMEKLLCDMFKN
# GST-PNR-(89–410): residues 89-410 of Q9Y5X4
# UniProt Q9Y466: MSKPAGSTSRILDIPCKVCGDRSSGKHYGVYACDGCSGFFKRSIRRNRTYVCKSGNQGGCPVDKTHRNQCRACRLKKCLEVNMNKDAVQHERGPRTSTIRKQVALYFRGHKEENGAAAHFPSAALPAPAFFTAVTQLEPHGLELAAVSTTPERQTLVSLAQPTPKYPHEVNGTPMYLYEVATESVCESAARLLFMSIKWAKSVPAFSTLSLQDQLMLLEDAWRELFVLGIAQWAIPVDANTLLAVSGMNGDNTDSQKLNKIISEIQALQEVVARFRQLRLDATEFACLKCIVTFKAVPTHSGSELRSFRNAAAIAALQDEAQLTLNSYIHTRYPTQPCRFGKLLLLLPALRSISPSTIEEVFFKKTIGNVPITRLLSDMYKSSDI
# UniProt Q9QYE3: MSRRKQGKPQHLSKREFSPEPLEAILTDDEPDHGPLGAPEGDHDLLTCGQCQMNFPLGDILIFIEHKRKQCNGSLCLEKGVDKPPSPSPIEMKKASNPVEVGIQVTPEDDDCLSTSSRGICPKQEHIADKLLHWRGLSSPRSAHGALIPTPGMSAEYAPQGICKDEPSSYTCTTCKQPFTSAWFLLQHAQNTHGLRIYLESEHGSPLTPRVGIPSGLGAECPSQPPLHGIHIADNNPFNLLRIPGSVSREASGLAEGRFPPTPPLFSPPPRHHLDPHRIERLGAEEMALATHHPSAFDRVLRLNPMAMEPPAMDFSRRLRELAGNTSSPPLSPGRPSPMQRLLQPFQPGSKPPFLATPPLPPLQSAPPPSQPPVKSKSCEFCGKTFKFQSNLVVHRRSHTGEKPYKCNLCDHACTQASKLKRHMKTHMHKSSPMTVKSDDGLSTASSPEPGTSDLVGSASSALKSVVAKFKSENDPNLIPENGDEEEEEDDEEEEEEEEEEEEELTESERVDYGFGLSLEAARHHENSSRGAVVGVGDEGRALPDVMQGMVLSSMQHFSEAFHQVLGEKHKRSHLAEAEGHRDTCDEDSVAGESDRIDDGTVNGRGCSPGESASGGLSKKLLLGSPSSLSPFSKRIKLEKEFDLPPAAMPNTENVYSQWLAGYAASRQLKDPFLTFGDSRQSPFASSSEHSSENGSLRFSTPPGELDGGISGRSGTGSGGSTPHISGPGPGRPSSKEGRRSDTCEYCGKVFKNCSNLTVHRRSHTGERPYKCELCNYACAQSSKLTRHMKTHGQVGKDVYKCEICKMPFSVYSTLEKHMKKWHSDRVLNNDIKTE
# UniProt P03372, residues 282-595: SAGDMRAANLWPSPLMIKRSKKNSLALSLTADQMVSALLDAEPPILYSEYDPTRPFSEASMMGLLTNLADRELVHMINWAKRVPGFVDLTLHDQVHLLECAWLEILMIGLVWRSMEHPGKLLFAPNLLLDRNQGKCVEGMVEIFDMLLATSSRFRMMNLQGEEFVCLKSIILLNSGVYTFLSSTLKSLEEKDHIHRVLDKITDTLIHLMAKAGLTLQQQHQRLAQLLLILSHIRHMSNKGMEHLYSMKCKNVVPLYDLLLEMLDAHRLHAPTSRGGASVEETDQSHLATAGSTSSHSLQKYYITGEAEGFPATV
# UniProt P10275, residues 626-919: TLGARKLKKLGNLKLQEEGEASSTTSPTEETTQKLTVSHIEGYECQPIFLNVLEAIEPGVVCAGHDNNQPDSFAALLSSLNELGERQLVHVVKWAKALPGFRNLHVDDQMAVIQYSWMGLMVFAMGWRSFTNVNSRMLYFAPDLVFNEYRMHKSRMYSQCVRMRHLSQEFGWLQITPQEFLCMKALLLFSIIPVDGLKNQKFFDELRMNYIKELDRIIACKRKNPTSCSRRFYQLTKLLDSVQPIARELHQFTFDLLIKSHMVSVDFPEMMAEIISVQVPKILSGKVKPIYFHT
# UniProt P19793, residues 200-462: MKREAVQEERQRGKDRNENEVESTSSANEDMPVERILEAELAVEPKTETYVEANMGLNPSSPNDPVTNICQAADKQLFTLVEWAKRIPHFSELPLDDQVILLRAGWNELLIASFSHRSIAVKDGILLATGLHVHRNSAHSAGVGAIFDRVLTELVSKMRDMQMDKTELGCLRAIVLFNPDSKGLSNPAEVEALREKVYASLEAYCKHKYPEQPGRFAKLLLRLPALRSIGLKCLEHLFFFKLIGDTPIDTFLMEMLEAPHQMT
# UniProt Q64104: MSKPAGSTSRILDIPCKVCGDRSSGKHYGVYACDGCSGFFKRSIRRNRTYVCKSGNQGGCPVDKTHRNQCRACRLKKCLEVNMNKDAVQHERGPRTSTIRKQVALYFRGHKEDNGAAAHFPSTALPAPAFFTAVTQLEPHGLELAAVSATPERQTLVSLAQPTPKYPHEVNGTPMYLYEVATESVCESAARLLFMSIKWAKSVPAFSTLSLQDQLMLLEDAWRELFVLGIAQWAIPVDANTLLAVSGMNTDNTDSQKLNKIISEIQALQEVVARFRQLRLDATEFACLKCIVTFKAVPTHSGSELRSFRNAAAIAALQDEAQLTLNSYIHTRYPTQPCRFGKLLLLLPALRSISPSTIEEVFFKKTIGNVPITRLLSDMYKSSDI
# No constants are given. Whether binding was seen depends on the method and setting. For part of these data: In cells and extracts the contact can be indirect. Some binding calls cover weakened binding; strength is not graded here. For part of these data: Sequences can lack the tags named with a protein.
# How the values were obtained:
# [1] = biological target: FLAG-BCL11A-XL (WT), HEK293 (UniProt Q9H165); assay: co-IP; HEK293 co-transfected; nuclear extracts in Triton X-100 lysis buffer; FLAG-tagged BCL11A-XL precipitated with anti-FLAG M2; Western blot
# [2] = biological target: FLAG-BCL11A-XL Y656A/W659A, HEK293 (UniProt Q9H165); assay: as above
# GST-COUP-TFII-(144–414) = biological target: T1, GST-COUP-TFII-(144–414) (UniProt P24468); assay: pull-down; GST fusion proteins on glutathione-Sepharose beads with 35S-labelled in vitro translated BCL11A-XL; NETN buffer (20 mM Tris pH 8.0, 100 mM NaCl, 1 mM EDTA, 0.5% NP-40); for GST-PPARγ with 1 µM roziglitazone or vehicle; only the target purified
# T1 sequence: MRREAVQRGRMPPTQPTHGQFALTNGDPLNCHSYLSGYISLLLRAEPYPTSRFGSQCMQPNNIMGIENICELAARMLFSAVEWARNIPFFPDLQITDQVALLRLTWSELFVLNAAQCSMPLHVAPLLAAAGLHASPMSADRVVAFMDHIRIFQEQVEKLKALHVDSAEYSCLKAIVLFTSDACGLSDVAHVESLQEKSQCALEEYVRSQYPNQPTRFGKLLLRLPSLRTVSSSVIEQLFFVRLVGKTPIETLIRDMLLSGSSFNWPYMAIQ
# GST-PNR-(89–410) = GST-PNR-(89–410) (UniProt Q9Y5X4); assay: as above
# GST-TLX-(100–385) = GST-TLX-(100–385) (UniProt Q9Y466); assay: as above
# LexA-BCL11A-(310–325) [3] = biological target: T2, LexA-BCL11A-(310–325) (UniProt Q9H165); assay: two-hybrid; S. cerevisiae L40; LexA DBD fusion with VP16 AAD-NR fusion; β-galactosidase activity in cell-free extracts; vehicle only or no ligand
# T2 sequence: PPAMDFSRRLRELAGN
# LexA-BCL11A-(651–670) [4] = biological target: T3, LexA-BCL11A-(651–670) (UniProt Q9H165); assay: as above
# T3 sequence: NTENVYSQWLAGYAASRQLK
# LexA-BCL11A-(310–325) [5] = biological target: T2, LexA-BCL11A-(310–325); assay: two-hybrid; S. cerevisiae L40; LexA DBD fusion with VP16 AAD-NR fusion; β-galactosidase activity in cell-free extracts; 10^-6 M cognate ligand added
# LexA-BCL11A-(651–670) [6] = biological target: T3, LexA-BCL11A-(651–670); assay: as above
# LexA-BCL11A RID2 S657A = biological target: T4, LexA-BCL11A RID2 S657A (UniProt Q9H165); assay: two-hybrid; S. cerevisiae L40; LexA DBD fusion with VP16 AAD-NR fusion; β-galactosidase activity in cell-free extracts; vehicle only or no ligand
# T4 sequence: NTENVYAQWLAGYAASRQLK
# [7] = biological target: endogenous BCL11A proteins, mouse cerebral cortex (mouse (endogenous in cerebral cortex)) (UniProt Q9QYE3); assay: co-IP; endogenous proteins, adult mouse cerebral cortex extract in Triton X-100 lysis buffer; BCL11A immunoprecipitated; Western blot
substance,measurement,setting,value
"HA-PNR-(89–410), HEK293 (from UniProt Q9Y5X4 89-410) (domain or fragment)",binding,[1],binds
same,binding,[2],binds
in vitro translated 35S-labelled FLAG-BCL11A-XL L319A/Y656A/W659A (from UniProt Q9H165-1 1-835),binding,GST-COUP-TFII-(144–414),no binding
same,binding,GST-PNR-(89–410),no binding
same,binding,GST-TLX-(100–385),no binding
AAD-PNR-LBD-(131–410) (from UniProt Q9Y5X4 131-410) (domain or fragment),binding,LexA-BCL11A-(310–325) [3],binds
same,binding,LexA-BCL11A-(651–670) [4],no binding
AAD-ERα-LBD-(282–595) (from UniProt P03372 282-595) (domain or fragment),binding,LexA-BCL11A-(310–325) [5],no binding
same,binding,LexA-BCL11A-(651–670) [6],no binding
AAD-AR-LBD-(626–919) (from UniProt P10275 626-919) (domain or fragment),binding,LexA-BCL11A-(310–325) [5],no binding
same,binding,LexA-BCL11A-(651–670) [6],no binding
AAD-RXRα-LBD-(200–462) (from UniProt P19793 200-462) (domain or fragment),binding,LexA-BCL11A-(310–325) [5],no binding
same,binding,LexA-BCL11A-(651–670) [6],no binding
in vitro translated 35S-labelled FLAG-BCL11A-XL wild type (from UniProt Q9H165-1 1-835),binding,GST-COUP-TFII-(144–414),binds
same,binding,GST-PNR-(89–410),binds
same,binding,GST-TLX-(100–385),binds
"HA-TLX, HEK293 (from UniProt Q9Y466 1-385)",binding,[1],binds
AAD-TLX-LBD-(100–385) (from UniProt Q9Y466 100-385) (domain or fragment),binding,LexA-BCL11A RID2 S657A,binds
same,binding,LexA-BCL11A-(310–325) [3],binds
same,binding,LexA-BCL11A-(651–670) [4],binds
"endogenous TLX, mouse cerebral cortex (from UniProt Q64104 1-385)",binding,[7],binds
